# Reference: PubChem BioAssay AID686979 (National Center for Advancing Translational Sciences (NCATS), 2013)
# Out of some 420,000 compounds screened, about 50,000 (12%) were called active. This list was built around the results that the source calls inconclusive (neither active nor inactive); the mix of calls is not that of the screen. The call rests on the fitted dose curve; in most records, active means well fitted inhibition curve with a large enough effect; inconclusive means small, poorly fitted or top-dose-only effect; inactive means flat fitted curve, though single readings scatter. Potencies of inconclusive entries are left out as doubtful fits.
# Assay: qHTS for Inhibitors of human tyrosyl-DNA phosphodiesterase 1 (TDP1): qHTS in cells in presence of CPT; further: nearly all actives have a fitted effect of over 55% in size
# Settings: chicken DT40 Tdp1-/-;hTDP1 cells + 20 nM CPT, ATP luminescence, 48 h; activity change, negative = growth inhibition: at 46.2 µM (top of the series)
# How it was run: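 Chicken DT40 Tdp1-/- cells complemented with human TDP1, 400 cells/well, exposed to compounds plus 20 nM camptothecin for at least 48 h at 37 C; viability read as ATP content by CellTiter-Glo luminescence.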
# On the % scale 0 is the no-effect control and ±100 the full control effect; potency means the concentration at half of the fitted maximal effect; tags describe the fitted curve by direction and shape.
Structure (SMILES),"activity change, negative = growth inhibition",Potency
O=C(Nc1nnc(C2CCCO2)s1)c1ccc(Br)cc1 (stereo not given),inconclusive: -28% [inhibitor],
CCC(NS(=O)(=O)c1ccc(OC)cc1)C(=O)NCCc1ccccc1 (stereo not given),,inactive
O=c1[nH]c2ccc(NCc3ccc(-c4ccccc4F)o3)cc2[nH]1,,active: 23.1 µM
CC(C)c1ccc(NC2CCCN(C(=O)c3cccnc3)C2)cc1 (stereo not given),,"inconclusive [inhibitor, partial curve, poor fit]"
CCOc1ccc(-c2cc3c(=O)n(Cc4nc(-c5ccc(OC)cc5OC)oc4C)ccn3n2)cc1Cl,,inactive
CCc1c(C(=O)NCc2ccccc2Cl)[nH]c(C)c1C(C)=O,,active: 23.1 µM
Cc1cc(NC(=O)CSc2nc3c(sc4ccccc43)c(=O)n2CCCN2CCOCC2)n[nH]1,,"inconclusive [inhibitor, single point]"
CCOC(=O)c1cc(-c2ccccc2)n(CCC(=O)N2CCN(c3ccccn3)CC2)c1C,,active: 14.6 µM
O=C(CCSc1nc(-c2ccco2)cc(C(F)(F)F)n1)NCC1CCCO1 (stereo not given),,"inconclusive [inhibitor, single point]"
Cn1cccc1C(=O)N1CCC2(CCCN(Cc3ccccc3)C2)CC1,,inactive
CNc1snc(C)c1C(=O)OC(C)C(=O)Nc1ccccc1 (stereo not given),,"inconclusive [inhibitor, single point]"
COc1ccc(CCNCc2c(-c3ccccc3)n(C)c3ccccc23)cc1,,active: 16.4 µM
COCOc1ccc(-c2cc(=O)c3c(OCOC)cc(OCOC)cc3o2)cc1,,"inconclusive [inhibitor, single point]"
COc1ccc(C(=O)NNC(=O)CN2CCC(n3nnc4cc(C)ccc43)CC2)cc1,,"inconclusive [inhibitor, single point]"
COc1cc(/C=C/C(=O)OCN2C(=O)c3ccccc3C2=O)ccc1OC(F)F,,inactive
COc1ccccc1NC(=O)c1nnn(-c2ccc(F)cc2)c1C,,inactive
CCOC(=O)[C@]12CCC=C1N(Cc1ccc(Cl)cc1Cl)C(=O)[C@H](CC(=O)NCc1ccc(C)o1)C2,,"inconclusive [inhibitor, single point]"
O=C(Nc1nc(=O)c2ccccc2s1)c1ccccc1,,"inconclusive [inhibitor, partial curve]"
CC[C@]12c3[nH]c4ccc(Cl)cc4c3CCN1C(=O)[C@@H](CC(=O)NC/C=C(\C)CCC=C(C)C)C[C@@H]2C(=O)N1CCN(C(=O)C2CC2)CC1,,"inconclusive [inhibitor, single point]"
COc1ccc(Cl)cc1NC(=O)CN1c2ccccc2CC1C (stereo not given),,"inconclusive [inhibitor, single point]"
CC1(C)CC(=O)C2=C(C1)OC(N)=C(C#N)C2c1cn(-c2ccccc2)nc1-c1ccccc1 (stereo not given),,"inconclusive [inhibitor, single point]"
COc1ccc(/C=C/C(=O)OCC(=O)NC2CC2)c(OC)c1,,"inconclusive [inhibitor, single point]"
O=C(NC1CC1)C1=C[C@H](c2c[nH]c3ccccc23)C[C@H](OCc2ccc(CO)cc2)O1,,"inconclusive [inhibitor, single point]"
COc1ccc(/C=C/C(=O)Nc2ccccc2C(=O)NCC(c2ccc(OC)cc2)N(C)C)cc1 (stereo not given),,active: 18.4 µM

Structure (SMILES),"activity change, negative = growth inhibition",Potency
CC(=O)c1c(C)nc(Nc2nc(C)c3cc(C)ccc3n2)nc1C,,inactive
Cc1cc(Nc2ccc(N3CCC(C)CC3)cc2)n2ncnc2n1,,"inconclusive [inhibitor, single point]"
COc1ccc(C(=O)NN(C)c2nc(-c3ccccc3)nnc2C(F)(F)F)cc1,,"inconclusive [inhibitor, partial curve]"
COc1ccc(C(=O)N2CC(=O)Nc3ccc(C)cc3C2c2ccc(F)cc2)c(OC)c1 (stereo not given),,active: 20.6 µM
CC(C)(C)OC(=O)COc1cc(OCC(=O)OC(C)(C)C)c2c(=O)cc(-c3ccccc3)oc2c1,,"inconclusive [inhibitor, single point]"
CCOC(=O)c1c(-c2ccccc2)c(C(C)=O)c(=O)n(C)c1C,,inactive
Cc1ccccc1-n1cnc2cc(NCc3cccs3)ccc21,,"inconclusive [inhibitor, single point]"
CC1(C(=O)Nc2ccc3ccccc3c2)CCC(=O)N1C1CC1 (stereo not given),,inactive
CC(C)(C)[C@H]1COC(=O)[C@@H](NC(=O)OCC2c3ccccc3-c3ccccc32)C/C=C\C[C@@H](CC(=O)N[C@@H](CO)Cc2ccccc2)C(=O)N1,,active: 9.2 µM
CCCNC(=O)N1CCC(Cc2ccccc2)CC1,,"inconclusive [inhibitor, single point]"
COc1ccccc1CNc1ncnc2sc(C(=O)N(C)C(C)C)c(C)c12,inactive: -3.78% [at 9.04 µM],
COc1cccc(C(=O)Cn2c(=N)n(C)c3ccccc32)c1,,active: 13 µM
CCCCCCSc1cccc(-c2nc3ccccn3c2NCc2ccccc2)c1,,active: 16.4 µM
CCN(CC)C(=O)c1cc(S(=O)(=O)N2CCCCC2)c[nH]1,,"inconclusive [inhibitor, full curve]"
Cc1ccc(Cl)cc1N1CCN(C(=O)Cc2c(C(=O)O)c(C)cn2C)CC1,,"inconclusive [inhibitor, partial curve]"
CCc1ccc(NC(=O)CNC(=O)[C@@H]2Cc3ccccc3CN2C(=O)OC(C)(C)C)cc1,,"inconclusive [inhibitor, single point]"
Cc1ccccc1-n1c(SCC(=O)c2cc(C)n(C)c2C)nnc1-c1ccncc1,,"inconclusive [inhibitor, single point]"
COc1ccc(-c2ccc3c(c2)S(=O)(=O)c2cccc(C(=O)NC4CCCC4)c2C3=O)cc1OC,,inactive
CN(C)c1ccc(/C=C2\C=Cc3cc(N)ccc32)cc1,,"inconclusive [inhibitor, single point]"
CCC(C)c1ccc(NC(=O)COc2c(F)c(F)c(C(F)(F)F)c(F)c2F)cc1 (stereo not given),,"inconclusive [inhibitor, single point]"
CCOC(=O)CCCCC(=O)c1[nH]c(=O)[nH]c1CSCCO,,inactive
Cc1ccc([C@H]2C[C@H](O)[C@@H](n3cc(-c4ccc(F)cc4)nn3)CN2C(=O)C2CCCCC2)cc1,,"inconclusive [inhibitor, single point]"
O=[N+]([O-])c1ccc(O)c(/C=N/Nc2ccccn2)c1,,active: 1.3 µM
O=C(CSc1nc(=O)n2cc(Cl)ccc2n1)Nc1cccc2ccccc12,,"inconclusive [inhibitor, single point]"

Structure (SMILES),"activity change, negative = growth inhibition",Potency
CC(=O)c1ccc(-c2ccc(C(=O)N(C)c3c(N)n(Cc4ccccc4)c(=O)[nH]c3=O)o2)cc1,,inactive
CC(=O)NC(Cc1c[nH]c2ccccc12)C(=O)NCCc1ccccc1 (stereo not given),,inactive
COc1ccc(OCC(=O)N/N=C/c2cccn2-c2cccc(C(=O)O)c2)cc1,,inactive
CCC(=O)N1CCc2cc(Br)cc(S(=O)(=O)CCC(=O)NCCc3ccc(C)cc3)c21,,"inconclusive [inhibitor, single point]"
O=C(CSc1nc2c(c(=O)[nH]1)CCC2)Nc1cccc(Cl)c1,inconclusive: -35.8% [inhibitor],
CC(=O)N1CCN(C(=O)c2ccc(S(=O)(=O)Nc3cccc(C(F)(F)F)c3)cc2)CC1,,inactive
COc1ccc(S(=O)(=O)Nc2cccc(-c3ccc(N4CCCCCC4)nn3)c2)cc1F,,"inconclusive [inhibitor, single point]"
S=C1NC2(CCCCC2)Cc2ccccc21,,"inconclusive [inhibitor, single point]"
COc1ccc(-n2c(-c3ccccc3)nc(=S)c3c2CCCC3)cc1,,"inconclusive [inhibitor, single point]"
COCCn1c(=NC(=O)/C=C/c2cccs2)sc2cc(NC(C)=O)ccc21,,"inconclusive [inhibitor, single point]"
COC(=O)CSc1nc(N)c(C#N)c(-c2ccc(O)cc2)c1C#N,,inactive
CCCCn1c(N)c(N(CC)C(=O)CSc2nnc(-c3ccco3)n2CC)c(=O)[nH]c1=O,,inactive
Cc1ccc(S(=O)(=O)Cc2cc(-c3ccc(Cl)cc3)no2)cc1,,"inconclusive [inhibitor, single point]"
Cc1c(NC(=O)/C(=C/c2cccs2)c2cccs2)c(=O)n(-c2ccccc2)n1C,,"inconclusive [inhibitor, partial curve]"
Cc1nc2c3cc(F)ccc3n(Cc3ccc(F)cc3)c2s1,,"inconclusive [inhibitor, single point]"
Cc1cccc(NC(=O)C23CCC(C)(C2Br)C3(C)C)c1 (stereo not given),,inactive
O=S(=O)(c1ccc(C2CCCCC2)cc1)N1CCN(c2ncccn2)CC1,,"inconclusive [inhibitor, single point]"
COc1ccc(NC(=O)Nc2ccc(F)cc2F)c(C)c1,,"inconclusive [inhibitor, single point]"
CCOC(=O)[C@H]1[C@H]2COc3ccc(OC)cc3[C@@H]2N2C(=O)CN(CC3CCCO3)C(=O)[C@@]12C (stereo not given in full),,inactive
Cc1cccc(N2C(=O)CN(Cc3sccc3C)C2=S)c1,,inactive
Cc1ccc(N(C(=O)CNC(=O)c2ccco2)C(C(=O)NC2CCCC2)c2cccnc2)cc1 (stereo not given),,inactive
COc1cc2cc(Oc3ccc4ccc(=O)oc4c3)c(=O)oc2cc1O[C@@H]1O[C@H](CO)[C@@H](O)[C@H](O)[C@H]1O,,inactive
